Data as given in the antibiotic and cytotoxicity screens of Wong et al. (2023).
Some of the results follow.

system: HSkMC (human skeletal muscle cells); experiment: cytotoxicity call (relative viability < 0.9); details: 10 µM

SMILES	cytotoxicity call
C[C@H](CO)N1C[C@H](C)[C@@H](CN(C)C(=O)Oc2cccc3ccccc23)OCc2cnnn2CCCC1=O	inactive
COc1ccc(CCN)cc1OC	inactive
C1COC2(CCNCC2)OC1	inactive
CC(CCc1ccccc1)NC(C)C(O)c1ccc(O)cc1.Cl (stereo unspecified)	inactive
O=C1C=CC(=O)C=C1	inactive
CC(=O)OCC1=C(C(=O)[O-])N2C(=O)C(NC(=O)CCCC(N)C(=O)[O-])C2SC1.[Zn+2] (stereo unspecified)	inactive
N#C[C@]1(O)CN2CCC1CC2	inactive
CCn1cnc2c(Nc3cccc(Cl)c3)nc(N[C@@H]3CCCC[C@@H]3N)nc21	active
C[C@H]1C[C@H]2CNCC[C@@H]2O1	inactive
CCCCCCCCCCCCCCCC[n+]1ccccc1	active
CN1CCc2cc3c(cc2C1C1OC(=O)c2c1ccc1c2OCO1)OCO3 (stereo unspecified)	inactive
CC1=C2C3OC(=O)C(C)C3CCC2(C)C=CC1=O (stereo unspecified)	inactive
CNC(=O)Oc1ccc2c(c1)C1(C)CCN(C)C1N2C.O=C(O)c1ccccc1O (stereo unspecified)	inactive
COC(=O)NC(=S)Nc1ccccc1NC(=S)NC(=O)OC	active
CCOC(=O)c1c(CN2CCN(c3ccccc3)CC2)n(Cc2ccccc2)c2cc(Br)c(O)cc12	active
O.O=P1(N(CCCl)CCCl)NCCCO1 (stereo unspecified)	inactive
Oc1ccc(Cl)cc1	inactive
CN(C)[C@@H]1C(=O)[C@H](C(N)=O)C(=O)[C@@]2(O)C(=O)[C@@H]3C(=O)c4c(O)cccc4[C@@](C)(O)[C@H]3C[C@@H]12	inactive
COCC12CN(C=O)C3C4C(OC)C1C3(C(OC)CC2O)C1CC2(O)C(OC)C(O)C4(OC(C)=O)C1C2OC(=O)c1ccccc1 (stereo unspecified)	inactive

SMILES	cytotoxicity call
CC(C)(C)OC(=O)N1C[C@H]2C[C@@H]1CN2	inactive
CC(C)(C)c1o[nH]c(=O)c1C[C@@H](N)C(=O)O	inactive
C[C@@H]1O[C@@H](O[C@@H]2C[C@@H](O)[C@]3(CO)[C@H]4[C@H](O)C[C@]5(C)[C@@H](C6=CC(=O)OC6)CC[C@]5(O)[C@@H]4CC[C@]3(O)C2)[C@H](O)[C@H](O)[C@H]1O	active
C[C@@H]1CN([C@@H](C)CO)C(=O)c2c(c3ccccc3n2C)-c2ccccc2CO[C@@H]1CN(C)C(=O)Oc1ccccc1	inactive
CC(=O)Oc1ccc(Cl)c2cccnc12	inactive
C1CCNCC1	inactive
C[C@H]1[C@H](O)[C@@H](C)/C=C\C=C/CC\C=C/C=C\C=C/C=C\[C@@H](O[C@@H]2O[C@H](C)[C@@H](O)[C@H](N)[C@@H]2O)C[C@H]2O[C@@](O)(C[C@@H](O)[C@@H]2C(=O)O)C[C@@H](O)[C@@H](O)CC[C@@H](O)C[C@@H](O)C[C@@H](O)CC(=O)O[C@H]1C	inactive
CCCN1CC(CSC)CC2c3cccc4[nH]cc(c34)CC21.CS(=O)(=O)O (stereo unspecified)	inactive
O=C(CCCN1CCC2(CC1)C(=O)N(Cc1cccc(F)c1)CN2c1ccccc1)c1ccc(F)cc1	inactive
CC(=C1C(=O)NC(=O)NC1=O)c1ccc(N)cc1	inactive
CC1(C)C(=O)C=CC2(C)C1CC(O)C1(C)C2CCC2(C)C(c3ccoc3)OC(=O)C3OC321 (stereo unspecified)	inactive
NN=C(N)N	inactive
Cc1cccc(C)c1NC1=NCCCS1	inactive
c1ccc2c(c1)Nc1ccccc1S2	inactive
C[C@@H]1CC[C@@]2(OC1)O[C@H]1[C@@H](O)[C@H]3[C@H]4CC[C@H]5C[C@H](O[C@@H]6O[C@H](CO)[C@H](O[C@@H]7O[C@H](CO)[C@@H](O)[C@H](O[C@@H]8OC[C@@H](O)[C@H](O)[C@H]8O)[C@H]7O[C@@H]7O[C@H](CO)[C@H](O)[C@H](O[C@@H]8O[C@H](CO)[C@@H](O)[C@H](O)[C@H]8O)[C@H]7O)[C@H](O)[C@H]6O)[C@H](O)C[C@]5(C)[C@@H]4CC[C@]3(C)[C@H]1[C@@H]2C	inactive
CC(=O)O[C@H]1C[C@H](O[C@H]2[C@@H](O)C[C@H](O[C@H]3[C@@H](O)C[C@H](O[C@H]4CC[C@@]5(C)[C@@H](CC[C@H]6[C@@H]5C[C@@H](O)[C@]5(C)[C@@H](C7=CC(=O)OC7)CC[C@]65O)C4)O[C@@H]3C)O[C@@H]2C)O[C@H](C)[C@H]1O[C@@H]1O[C@H](CO)[C@@H](O)[C@H](O)[C@H]1O	active
CO[C@H]1[C@H]2CC[C@@H]1NC2	inactive
C[C@@]12C(=O)OC(=O)[C@]1(C)[C@H]1CC[C@@H]2O1	active
CCCCCCCCCC(=O)O[C@@H]1[C@@H](C)[C@@]2(O)[C@@H](C=C(CO)C[C@]3(O)C(=O)C(C)=C[C@@H]23)[C@@H]2C(C)(C)[C@]12OC(=O)CCCCCCCCC	inactive

system: HepG2; experiment: cytotoxicity call (relative viability < 0.9); details: 10 µM

SMILES	cytotoxicity call
C[C@H](CO)N1C[C@H](C)[C@@H](CN(C)C(=O)Oc2cccc3ccccc23)OCc2cnnn2CCCC1=O	inactive
COc1ccc(CCN)cc1OC	inactive
C1COC2(CCNCC2)OC1	inactive
CC(CCc1ccccc1)NC(C)C(O)c1ccc(O)cc1.Cl (stereo unspecified)	inactive
O=C1C=CC(=O)C=C1	inactive
CC(=O)OCC1=C(C(=O)[O-])N2C(=O)C(NC(=O)CCCC(N)C(=O)[O-])C2SC1.[Zn+2] (stereo unspecified)	inactive
N#C[C@]1(O)CN2CCC1CC2	inactive
CCn1cnc2c(Nc3cccc(Cl)c3)nc(N[C@@H]3CCCC[C@@H]3N)nc21	active
C[C@H]1C[C@H]2CNCC[C@@H]2O1	inactive
CCCCCCCCCCCCCCCC[n+]1ccccc1	active
CN1CCc2cc3c(cc2C1C1OC(=O)c2c1ccc1c2OCO1)OCO3 (stereo unspecified)	inactive
CC1=C2C3OC(=O)C(C)C3CCC2(C)C=CC1=O (stereo unspecified)	inactive
CNC(=O)Oc1ccc2c(c1)C1(C)CCN(C)C1N2C.O=C(O)c1ccccc1O (stereo unspecified)	active
COC(=O)NC(=S)Nc1ccccc1NC(=S)NC(=O)OC	active
CCOC(=O)c1c(CN2CCN(c3ccccc3)CC2)n(Cc2ccccc2)c2cc(Br)c(O)cc12	inactive
O.O=P1(N(CCCl)CCCl)NCCCO1 (stereo unspecified)	inactive
Oc1ccc(Cl)cc1	inactive
CN(C)[C@@H]1C(=O)[C@H](C(N)=O)C(=O)[C@@]2(O)C(=O)[C@@H]3C(=O)c4c(O)cccc4[C@@](C)(O)[C@H]3C[C@@H]12	inactive
COCC12CN(C=O)C3C4C(OC)C1C3(C(OC)CC2O)C1CC2(O)C(OC)C(O)C4(OC(C)=O)C1C2OC(=O)c1ccccc1 (stereo unspecified)	inactive

SMILES	cytotoxicity call
CC(C)(C)OC(=O)N1C[C@H]2C[C@@H]1CN2	inactive
CC(C)(C)c1o[nH]c(=O)c1C[C@@H](N)C(=O)O	inactive
C[C@@H]1O[C@@H](O[C@@H]2C[C@@H](O)[C@]3(CO)[C@H]4[C@H](O)C[C@]5(C)[C@@H](C6=CC(=O)OC6)CC[C@]5(O)[C@@H]4CC[C@]3(O)C2)[C@H](O)[C@H](O)[C@H]1O	active
C[C@@H]1CN([C@@H](C)CO)C(=O)c2c(c3ccccc3n2C)-c2ccccc2CO[C@@H]1CN(C)C(=O)Oc1ccccc1	inactive
CC(=O)Oc1ccc(Cl)c2cccnc12	active
C1CCNCC1	inactive
C[C@H]1[C@H](O)[C@@H](C)/C=C\C=C/CC\C=C/C=C\C=C/C=C\[C@@H](O[C@@H]2O[C@H](C)[C@@H](O)[C@H](N)[C@@H]2O)C[C@H]2O[C@@](O)(C[C@@H](O)[C@@H]2C(=O)O)C[C@@H](O)[C@@H](O)CC[C@@H](O)C[C@@H](O)C[C@@H](O)CC(=O)O[C@H]1C	inactive
CCCN1CC(CSC)CC2c3cccc4[nH]cc(c34)CC21.CS(=O)(=O)O (stereo unspecified)	inactive
O=C(CCCN1CCC2(CC1)C(=O)N(Cc1cccc(F)c1)CN2c1ccccc1)c1ccc(F)cc1	active
CC(=C1C(=O)NC(=O)NC1=O)c1ccc(N)cc1	inactive
CC1(C)C(=O)C=CC2(C)C1CC(O)C1(C)C2CCC2(C)C(c3ccoc3)OC(=O)C3OC321 (stereo unspecified)	active
NN=C(N)N	inactive
Cc1cccc(C)c1NC1=NCCCS1	inactive
c1ccc2c(c1)Nc1ccccc1S2	active
C[C@@H]1CC[C@@]2(OC1)O[C@H]1[C@@H](O)[C@H]3[C@H]4CC[C@H]5C[C@H](O[C@@H]6O[C@H](CO)[C@H](O[C@@H]7O[C@H](CO)[C@@H](O)[C@H](O[C@@H]8OC[C@@H](O)[C@H](O)[C@H]8O)[C@H]7O[C@@H]7O[C@H](CO)[C@H](O)[C@H](O[C@@H]8O[C@H](CO)[C@@H](O)[C@H](O)[C@H]8O)[C@H]7O)[C@H](O)[C@H]6O)[C@H](O)C[C@]5(C)[C@@H]4CC[C@]3(C)[C@H]1[C@@H]2C	inactive
CC(=O)O[C@H]1C[C@H](O[C@H]2[C@@H](O)C[C@H](O[C@H]3[C@@H](O)C[C@H](O[C@H]4CC[C@@]5(C)[C@@H](CC[C@H]6[C@@H]5C[C@@H](O)[C@]5(C)[C@@H](C7=CC(=O)OC7)CC[C@]65O)C4)O[C@@H]3C)O[C@@H]2C)O[C@H](C)[C@H]1O[C@@H]1O[C@H](CO)[C@@H](O)[C@H](O)[C@H]1O	active
CO[C@H]1[C@H]2CC[C@@H]1NC2	inactive
C[C@@]12C(=O)OC(=O)[C@]1(C)[C@H]1CC[C@@H]2O1	active
CCCCCCCCCC(=O)O[C@@H]1[C@@H](C)[C@@]2(O)[C@@H](C=C(CO)C[C@]3(O)C(=O)C(C)=C[C@@H]23)[C@@H]2C(C)(C)[C@]12OC(=O)CCCCCCCCC	inactive
